Measurements as given in the RNAGym collection of RNA variant scans (doi:10.7554/elife.90254).
The source gives no read counts; variants with many changes may rest on few reads.

B1: LINE1-full (parent)
chain: UACGUAGGUGGUUUUCCCCUGAUAGUGCUAAGGGGGCCUGGAAGUUUGGACUGGGCAGAGCUCAACACAGCGUGGCAAAGUGGCUGUGGCUAGACUGCCUCUCUGGAUUCCUCGUCACUCAGCAGGGCAUCUCUGAGAGAAAUGCC

Variants of: B1
Assay: self-cleavage, relative activity (ratio to wild type); higher = more cleavage; in vitro, sequencing; the parent is a self-cleaving ribozyme

| Variant | self-cleavage |
| --- | --- |
| UACGUAGGUGGUUUUCCCCUGAUAGUGCUAAGGGGGCCUGGAAGUUUGGACUGGGCAGAGCCCAACACAGCGUGGCUAAGUGGCUGUGGCUAGACAGCCUCUCUGGAUUCCUCGUCACUCAGCAGGGCAUCUCUGAGAGAAAUGCC [U62C A77U U96A] | 0.05 |
| UACGUGGGUGGUUUCCCCCUGAUAGUGCUAAGGGGGCCUGGAAGUUUGGACUGGGCAGAGCUCAACACAGCGUGGCAAAGUGGCUGUGGCUAGACUGCCUCUCUGGAUUCCUCGUCACUCAGCAGGCCAUCUCUGAGAGAAAUGCC [A6G U15C G127C] | 0.98 |
| UACGUAGGUGGUUUUCCCCUGAUAGUGCUAAGGGGGCCUGGAAGCUUGGACUGGGCUGAGCCCAACACAGCGUGGCAAAGUGGCUGUGGCUAGACUGCCUCUCUGGAUUCCUCGUCACUCAGCAGGGCAUCUCUGAGAGAAAUGCC [U45C A57U U62C] | 0 |
| UACGUAGGUGGUAUUCCCCUGAUAGUGCUAAGGGGGCCUGGAAGUUUGGACUGGGCAGAGCUCAACACAGCGUGGCAAGGUGGCUGUGGCUACACUGCCUCUCUGGAUUCCUCGUCACUCAGCAGGGCAUCUCUGAGAGAAAUGCC [U13A A79G G93C] | 0.07 |
| UACGUAGGUGGUUUUCCCCUGAUAGUGCUAAGGGGGCCUGGAAGUUUGGACUGGGCAGAGCUCAACACAGCGUGGCAAAGAGGCUGUGGCUAGACUGCCUCUCAGGAUUCCUCGACACUCAGCAGGGCAUCUCUGGGAGAAGUGCC [U81A U104A U115A A136G A142G] | 2.76 |
| UACGUAGGUGGUUUUCCCCUGAUAGUGCUAAGGGGGCCUGGAAGUUUGGACUGGGCAGGGCUCAACACAGCGUGGCAAAGUGGCUGUGGCUAGACUGACUCUCUGGAUUCCUCGUCACUCAGCAGGGCAUCUCUGGGAGAAAUGCC [A59G C98A A136G] | 0.05 |
| UACGUAGGAGGUUUUCCCCUGAUAGUGCUAAGGGGGCCUGGAAGUUUGGACUGGGCAGAGCUCAACACAGCGUGGCAAAGUGGCUGUGGCUAGACUGCCUCUCUGGGUUCCUCGUCACUCGGCAGGGCAUCUCUGAGAGAAAUGCC [U9A A107G A121G] | 0.74 |
| UACGUAGGCGGUUUUCCCCUGAUAGCGCUAAGGGGGCCUGGAAGUUUGGACUGGGCAGAGCUCAACACAGCGUGGCAAAGUGGCUGUGGCUAGACUGCCUCUCUGGAUUCCUCAUCACUCAGCAGGGCAUCUCUGAGAGAAAUGCC [U9C U26C G114A] | 1.04 |
| UACGUAGGUGGUUUUCCCCUGAUAGUGCUAAGGGGUCCUGGAAGUUUGGACUGGGCAGGGCUCAACACAGCGUGGCAAAGUGGCUGUGGCUAGACUGCCUCUCUGGAUUCCCCGUCACUCAGCAGGGCAUCUCUGAGAGAAAUGCC [G36U A59G U112C] | 0.07 |
| UACGUAGGUGGUUUUCCCCUGAUAGUGCUAAGGGGGCCUGGAAGUUUGGACUGGGCAGAGCUCAGCACAGCGUGGCAAAGUGGCUGUGGCUAGACUGCCUCUCUGGGUUCCUCGCCACUCAGCAGGGCAUCUCUGAGAGAAAUGCC [A65G A107G U115C] | 0.26 |
| UACAUAGGUGGUCUACCCCUGAUAGUGCUAAGGGGGCCUGGAAGCUUGGACUGGGCAGAGCUCAACACAGCGUGGCAAAGUGGCUGUGGCUAGACUGCCUCUCUGGAUUCCUCGUCACUCAGCAGGGCAUCUCUGAGAGAAAUGCC [G4A U13C U15A U45C] | 0.53 |
| UACGUAGGUGGUUUUCCCCUGAUAGUGCUAAGGUGGCCUGGAAGUUUGGACUGGGCAGGGCUCAACACAGCGUGGCAGAGUGGCUGUGGCUAGACUGCCUCUCUGGAUUCCUCGUCACUCAGCAGGGCAUCUCUGGGAGAAAUGCC [G34U A59G A78G A136G] | 0.1 |
| UACGUAAGUGGUUUUCCCCUGAUAGUGCAAAGGGGGCCUGGAAGUUCGGGGUGGGCAGAGCUCAACACAGCGUGGCAAAGCGGCUGUGGCUAGACUGCCUCUCUGGAUUCCUCGUCACUCAGCAGGGCAUCUCUGAGAGAGAUGCC [G7A U29A U47C A50G C51G U81C A141G] | 2.04 |
| UACGUAGGUGGUUUUCCCCUGAUAAUGCUAAGAGGGCCUGGAGGUUUGGACUGGGCAGAGCUCAACACAGCGUGGCAAAGUGGCUGUGGCUAGACUGCCUCUCUGGAUUCCUCGUCACUCAGCAAGGCAUCUCUGAGAGAAAUGCC [G25A G33A A43G G125A] | 0.8 |
| UACGUAGGUGGUUUUCCCCUGAUAGUGCUAAGGGGGCCUGGAAGUUUGGACUGGGCAGAGCUCAACACAGCGUGGCAAAGUGGCUGUGGCUAGACUGCCUCUCUGGAACCCUCGUCACUCAUCAGGGCAUCCCUGAGAGAAAUGCC [U108A U109C G122U U132C] | 1.76 |
| UACGUAGGUGGUUUUCCCCUGAUAGUGCUAAGGGGGCCUGGAAGUUUGGACUGGGCAGAGCUCAACACAGCGUGGCAAAGUGGCUGUGGCUAGACUGCCUCUCUGGAUUCCUCGUCACUCAGCAGGGCAUCUCCGUGAGAGAUGCC [U134C A136U A141G] | 1.77 |
| UACGUAGGUGGUUCUCCCCUGAUAGAGCUAAGGGGGCCUGGUAGUUUGGACUGGGCAGAGCUCAACACAGCGUGGCAAAGUGGCUGUGGCUAGACUGCCUCUCUGGUCUCCUCGUCACUCAGCAGGGCAUCUCUGAGAGAAAUGCC [U14C U26A A42U A107U U108C] | 0.66 |
| UACGUAGGUGGUUUUCCCCUGAUAGUGCUAAGGGGGCCUGGAAGUUUGGACCGGGCAGAGCUCAACCCAGCGUGGCAAAGUGGCUGUGGCUAGACUGCCUCUCUGGAAUCCUCGUCACUCAGCAGGGCAUCUCUGAGAGAAAUGCC [U52C A67C U108A] | 0.22 |
| AGCGUAGGUGGUUUUCCCCUGAUAGUGCUAAGGGGGCCUGGGAGUUUGGACUGGGCAGAGCUCAACACAGCGUGGCAAAGUGGCUGUAGCUAGACUGCCUCUCUGGAUUCCUCGUCACUCAGCAGGGCAUCUCUGAGAGAAAUGCC [U1A A2G A42G G88A] | 0.26 |
| UACGUAGGUGGUUUUCCCCUGGUAGUGCUAAGGGGGCCUGGAAGUUUGGACUGGGCAGAGCUCAACACGGCGUGGCAAAGUGGCAGUGGCUAGACUGCCUCUCUGGAUUCCUCGUCACUCAGCAGGGCAUCUCCGAGAGAAAUGCC [A22G A69G U85A U134C] | 0 |
